Results as given in PMC12322040 (Nature Communications, 2025).

Molecular target: T1, GST-GCK WT (human, UniProt P35557 1-465)
T1 sequence (looked up): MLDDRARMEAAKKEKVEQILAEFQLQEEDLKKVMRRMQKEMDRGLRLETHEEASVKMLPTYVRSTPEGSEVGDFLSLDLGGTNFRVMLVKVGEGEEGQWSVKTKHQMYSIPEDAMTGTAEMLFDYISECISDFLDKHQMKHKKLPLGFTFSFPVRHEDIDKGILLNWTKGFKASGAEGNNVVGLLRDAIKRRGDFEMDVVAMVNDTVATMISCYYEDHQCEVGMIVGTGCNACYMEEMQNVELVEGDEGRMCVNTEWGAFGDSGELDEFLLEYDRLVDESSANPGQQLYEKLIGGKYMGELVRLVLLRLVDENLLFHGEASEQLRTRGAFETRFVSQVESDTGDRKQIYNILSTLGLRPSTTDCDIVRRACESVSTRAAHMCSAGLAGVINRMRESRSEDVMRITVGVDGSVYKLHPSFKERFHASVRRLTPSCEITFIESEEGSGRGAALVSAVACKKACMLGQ
Test: pull-down

binding result: binds
B1: His-TAZ S89D phosphorylation-mimicking mutant (natural protein)
chain: not shown
